The source of these data is publication PMC4336329 (PLoS ONE, 2015).

About 2,200 (0.71%) of roughly 310,000 compounds showed an effect of 50% or more. The effect is printed as a negative number. The list shows a part of the results.

human ether-à-go-go-related gene (hERG) potassium channel, sequence (Q12809 whole entry, looked up): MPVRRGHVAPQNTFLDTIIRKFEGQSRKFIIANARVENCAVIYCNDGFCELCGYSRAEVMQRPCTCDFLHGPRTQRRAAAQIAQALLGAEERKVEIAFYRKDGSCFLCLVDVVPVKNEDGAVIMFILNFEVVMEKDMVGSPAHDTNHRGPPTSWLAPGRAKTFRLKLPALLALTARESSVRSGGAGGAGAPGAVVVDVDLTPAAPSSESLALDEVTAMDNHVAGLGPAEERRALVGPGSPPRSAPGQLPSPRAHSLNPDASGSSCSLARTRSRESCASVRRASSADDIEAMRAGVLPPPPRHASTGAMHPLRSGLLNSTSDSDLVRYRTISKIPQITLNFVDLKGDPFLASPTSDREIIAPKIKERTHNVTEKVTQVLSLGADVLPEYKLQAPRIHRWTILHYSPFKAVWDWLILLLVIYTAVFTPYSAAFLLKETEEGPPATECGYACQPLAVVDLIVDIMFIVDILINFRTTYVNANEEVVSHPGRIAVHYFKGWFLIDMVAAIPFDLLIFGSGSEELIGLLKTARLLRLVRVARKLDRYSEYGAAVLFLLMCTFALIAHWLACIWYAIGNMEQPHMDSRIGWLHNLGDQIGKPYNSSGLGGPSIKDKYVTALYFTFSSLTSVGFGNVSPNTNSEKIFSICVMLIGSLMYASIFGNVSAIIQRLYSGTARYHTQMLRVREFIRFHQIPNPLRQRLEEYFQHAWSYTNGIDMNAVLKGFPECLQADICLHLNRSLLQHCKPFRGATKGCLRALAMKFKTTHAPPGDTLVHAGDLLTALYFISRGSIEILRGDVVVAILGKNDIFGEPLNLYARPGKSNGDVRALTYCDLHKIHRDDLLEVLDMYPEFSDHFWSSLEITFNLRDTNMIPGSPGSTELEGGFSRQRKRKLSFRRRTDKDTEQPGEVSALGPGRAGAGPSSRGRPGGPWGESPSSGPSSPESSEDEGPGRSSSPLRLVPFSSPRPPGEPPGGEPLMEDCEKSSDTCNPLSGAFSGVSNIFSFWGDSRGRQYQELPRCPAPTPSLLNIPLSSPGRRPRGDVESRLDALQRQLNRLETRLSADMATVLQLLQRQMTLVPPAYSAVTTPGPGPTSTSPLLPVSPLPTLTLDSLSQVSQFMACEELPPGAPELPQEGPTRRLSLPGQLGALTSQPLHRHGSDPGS

This test concerns the target human ether-à-go-go-related gene (hERG) potassium channel (human, UniProt Q12809). Kind of test: primary screen, population patch clamp on CHO cells stably expressing hERG.
`C#CCOCCOCCOCCNc1nc(N2CCN(C(=O)CCCCCCCCCCNC(=O)Cn3cc(CCCCCN)nn3)CC2)nc(N2CCN(C(=O)CCCCCCCCCCNC(=O)[C@@H]([C@H](C)O)n3cc(C)nn3)CC2)n1`: the “hERG current change (%, negative = inhibition) at 1uM” value was found to be 7.97%.

For `COc1ccccc1NS(=O)(=O)c1ccc(C)c(C(=O)NCC(c2ccco2)N(C)C)c1` (centres unmarked), the “hERG current change (%, negative = inhibition) at 1uM” value came to 9.87%. In the case of `C=CCSc1nnc(NC(=O)CCN2C(=O)C3CC=CCC3C2=O)s1` (centres unmarked) it was 4.55%; in that of `O=c1c2ccccc2ncn1Cc1ccc2c(c1)OCO2`, 14.1%.

With `Cc1ccc(N(C(=O)Cn2nnc(-c3ccccc3F)n2)C(C(=O)NC2CCCC2)c2ccncc2)cc1` (centres unmarked), the “hERG current change (%, negative = inhibition) at 1uM” value is reported as 8.61%. Regarding `O=C(c1ccccc1)N(Cc1ccc2c(c1)OCO2)Cc1nc2ccccc2c(=O)[nH]1`, the “hERG current change (%, negative = inhibition) at 1uM” value came out at 5.35%.

Regarding `CCN(CC)CCNC(=O)c1cccc(NC(=O)C(=O)c2cc(Br)ccc2NC(C)=O)c1`, the “hERG current change (%, negative = inhibition) at 1uM” value is -2.69%. As to `Cc1[nH]c(=O)[nH]c(=O)c1S(=O)(=O)N1CCN(c2ccccc2)CC1`, the “hERG current change (%, negative = inhibition) at 1uM” value is recorded as 16.8%. As for `CCOC(=O)c1c(NC(=O)CSc2nnc(C)c(=O)[nH]2)sc2c1CCC2`, the “hERG current change (%, negative = inhibition) at 1uM” value was found to be 2.02%.

`COc1cc(OC)cc(C(=O)OCC(=O)NCCCc2ccccc2)c1`: the “hERG current change (%, negative = inhibition) at 1uM” value was determined as 13.5%.

On to `Cc1cc2cc(CNC(=O)c3ccc(S(=O)(=O)N4CCCC4)cc3)ccc2n1C`, for which the “hERG current change (%, negative = inhibition) at 1uM” value worked out at 9.1%.

As to `O=C(N/N=C/c1ccc(N2CCCC2)c([N+](=O)[O-])c1)c1cccnc1`, the “hERG current change (%, negative = inhibition) at 1uM” value amounted to 4.06%.

`CC(C)CN(C(=O)CCC(=O)OCC(=O)NCCc1ccccc1)c1c(N)n(CC(C)C)c(=O)[nH]c1=O`: the “hERG current change (%, negative = inhibition) at 1uM” value is reported as -0.265%. The same measure for `COc1ccccc1/C=C(/NC(=O)c1ccccc1)C(=O)NCCN1CCOCC1`: 13.6%; for `COC(=O)CN1C(=O)COc2ccc(S(=O)(=O)N3CCCCCC3)cc21`: 9%; for `N/C(=N\c1nc(CSc2nnnn2-c2ccccc2)cc(=O)[nH]1)Nc1ccccc1`: 20.4%. In the case of `CCOC(=O)N/N=C/C=C/c1ccccc1[N+](=O)[O-]` it was 8.8%; in that of `C=CCNc1nc(NCc2ccccc2)nc(OCC)n1`, 1.14%.

Turning to `CCOc1ccc(S(=O)(=O)N2CCC(C(=O)NCC3CCCO3)CC2)cc1C` (centres unmarked), the “hERG current change (%, negative = inhibition) at 1uM” value is 15.5%. In the case of `Cn1cc(-c2nnc(-c3ccccc3)o2)c2ccccc21` it was 10.3%; in that of `COc1cc(OC)c2c(C)cc(=O)oc2c1C(CCN1CCN(c2ccccc2)CC1)c1ccc2c(c1)OCO2` (centres unmarked), 9.26%. The same measure for `CC1=C(C)CC2C(=O)N(Cc3ccccc3)C(=O)C2C1` (centres unmarked): 4.15%; for `O=C(Cc1ccccc1)NCc1ccc2c(c1)OCO2`: 0.915%. In the case of `O=C(Nc1ccc2ccccc2n1)c1ccccc1`, the “hERG current change (%, negative = inhibition) at 1uM” value is 10.4%. As to `COc1ccc(OCC(O)Cn2c(=N)n(CCN3CCOCC3)c3ccccc32)cc1.Cl` (centres unmarked), the “hERG current change (%, negative = inhibition) at 1uM” value is -10.5%. In the case of `COc1ccc(Cn2c(SC)nc3ccccc32)cc1[N+](=O)[O-]` it was 17.2%; in that of `CCOC(=O)c1c(-c2ccc(C)o2)csc1NC(=S)NC(=O)c1ccc(F)cc1`, 11.3%; in that of `COC(=O)COc1ccc(C2NC(=O)NC(C)=C2C(=O)NCc2ccccc2)cc1OC` (centres unmarked), -3%. As for `O=C(NCc1ccccc1)c1ccc(N2C(=O)C3CCCCC3C2=O)cc1` (centres unmarked), the “hERG current change (%, negative = inhibition) at 1uM” value is 6.94%. In the case of `COc1ccc(C(=O)N2CCN(C3CCN(Cc4ccccc4)CC3)CC2)cc1OC`, the “hERG current change (%, negative = inhibition) at 1uM” value is -14.5%. With `O=C(/C=C/c1ccccc1)NCCSCc1ccccc1Cl`, the “hERG current change (%, negative = inhibition) at 1uM” value is listed as 12.6%. Regarding `Cn1c(=O)c2c(nc(Oc3ccccc3N)n2C)n(C)c1=O`, the “hERG current change (%, negative = inhibition) at 1uM” value was 26.6%.

As to `Cc1ccc(NC(=S)NCCc2ccc(S(N)(=O)=O)cc2)cc1C`, the “hERG current change (%, negative = inhibition) at 1uM” value was found to be 7.85%. `COc1ccccc1NC(=O)C1=C(C)NC(=O)NC1c1ccccc1F` (centres unmarked): the “hERG current change (%, negative = inhibition) at 1uM” value came out at 6.77%.

Consider `Cc1nc2nc(SCC(=O)NCCCN3CCCC(C)C3)nn2c(C)c1Cc1ccccc1Cl` (centres unmarked), for which the “hERG current change (%, negative = inhibition) at 1uM” value turned out to be 11.1%. Take `N#C/C(=C\c1ccc(OCc2ccccc2)cc1)C(=O)Nc1ccc(C(=O)O)cc1`: the “hERG current change (%, negative = inhibition) at 1uM” value is on record as 8.52%.

In the case of `CCOC(=O)C(CC)Sc1ccc2nnc(-c3cccnc3)n2n1` (centres unmarked), the “hERG current change (%, negative = inhibition) at 1uM” value is on record as -10.4%. The same measure for `CCOC(=O)N1CCN(C(=O)CCCn2c(=S)[nH]c3ccc(Br)cc3c2=O)CC1`: 1.98%.

Take `N#Cc1cc2c(nc1SCc1ccncc1)CCC2`: the “hERG current change (%, negative = inhibition) at 1uM” value is 1.23%. With `CCC(C)N(C(=O)COC(=O)CCc1c[nH]c2ccccc12)C1CCS(=O)(=O)C1` (centres unmarked), the “hERG current change (%, negative = inhibition) at 1uM” value is 4.74%.

On to `CCCOc1ccc(S(=O)(=O)N2CCCC2)cc1[N+](=O)[O-]`, for which the “hERG current change (%, negative = inhibition) at 1uM” value stood at 4.2%. In the case of `N#Cc1ccccc1CSc1nc2ccsc2c(=O)n1Cc1ccccn1` it was 8.27%. As to `CC1CCCCC12NC(=O)N(CC(=O)NC1CCCc3ccccc31)C2=O` (centres unmarked), the “hERG current change (%, negative = inhibition) at 1uM” value is given as 13.6%.

In the case of `C=CCn1c(N2CCCC2)nc2c1c(=O)n(C)c(=O)n2C`, the “hERG current change (%, negative = inhibition) at 1uM” value turned out to be 10%. Turning to `CCCn1c(Nc2cccc(OC)c2)nc2ccccc21`, the “hERG current change (%, negative = inhibition) at 1uM” value stood at 11%. Take `COCCCNc1nc2c(c(=O)[nH]c(=O)n2C)n1CC(O)COc1ccccc1C` (centres unmarked): the “hERG current change (%, negative = inhibition) at 1uM” value is reported as -4.33%. For `CC(/C=C\C=C\c1ccccc1)=N\NC(=O)c1cncc(Br)c1`, the “hERG current change (%, negative = inhibition) at 1uM” value worked out at 12.1%. On to `CN(C)/C=C1/C=C(c2ccccc2)OC1=O`, for which the “hERG current change (%, negative = inhibition) at 1uM” value amounted to 7.64%. Take `COc1cc(/C=C/c2nc3ccccc3c(=O)[nH]2)ccc1OC(F)F`: the “hERG current change (%, negative = inhibition) at 1uM” value is listed as 17.3%. Turning to `CCCn1c(O)c(/C=C2\C=NN=C2c2ccccc2)sc1=S`, the “hERG current change (%, negative = inhibition) at 1uM” value came out at 8.56%. In the case of `O=C(CCCc1nc(-c2ccc(Cl)cc2)no1)NC1CCCCC1` it was 18.4%; in that of `CCOC(=O)N1CCN(C(=O)c2ccccc2SCC(=O)NCC2CCCCC2)CC1`, -4.41%.

Consider `O=C(CCc1nnc(-c2ccc(-c3ccccc3)cc2)o1)N1CCCCC1`, for which the “hERG current change (%, negative = inhibition) at 1uM” value is 7.16%. For `Cc1ccc(NC(=O)/C(=C\c2cccnc2)NC(=O)c2ccccc2)cc1`, the “hERG current change (%, negative = inhibition) at 1uM” value is listed as -9.99%.

`O=C(/C=C/c1ccccc1)Nc1cccnc1Oc1ccccc1F`: the “hERG current change (%, negative = inhibition) at 1uM” value was 10.7%. As to `Cc1nc(CN(C)C(=O)c2cc(COc3c(F)cccc3F)on2)cs1`, the “hERG current change (%, negative = inhibition) at 1uM” value worked out at 11.9%. The same measure for `O=C(C1CCN(S(=O)(=O)N2CCOCC2)CC1)N1CCOCC1`: -8.59%. On to `Cc1cnn(-c2cc(Oc3ccccc3)ncn2)c1`, for which the “hERG current change (%, negative = inhibition) at 1uM” value is on record as 5.29%. As to `COCCCNC(=S)NC(=O)c1ccc([N+](=O)[O-])cc1`, the “hERG current change (%, negative = inhibition) at 1uM” value was 2.5%. In the case of `CCc1cc(=O)oc2cc(OC(=O)c3ccco3)ccc12` it was 10.4%; in that of `COc1cccc(N2CCN(S(=O)(=O)c3ccc4nc(-c5ccccc5)[nH]c4c3)CC2)c1`, 12.9%; in that of `CCC(=O)Nc1ccccc1C(=O)OCC(=O)Nc1ccc(S(N)(=O)=O)cc1`, -2.67%. Take `CCN1/C(=C/C=C/C=C/C=C/c2sc3ccccc3[n+]2CC)Sc2ccccc21.[I-]`: the “hERG current change (%, negative = inhibition) at 1uM” value was 7.57%. For the molecule `CC(CNC(=O)CCn1c(=O)c2cccn2c2ccc(F)cc21)c1ccccc1` (centres unmarked), the “hERG current change (%, negative = inhibition) at 1uM” value is given as 8.2%. In the case of `COc1ccc(N2C(=O)CC(SCCc3nc4ccccc4[nH]3)C2=O)cc1` (centres unmarked) it was -3.9%; in that of `CN(C(=O)COC(=O)C1CCN(S(=O)(=O)c2c(Cl)cccc2Cl)CC1)C1CCCCC1`, 6.26%; in that of `Cc1c(NC(=O)CSc2nc3ccccc3s2)c(=O)n(-c2ccccc2)n1C`, 3.26%. As for `Cn1cc(/C=C2\C(=O)NC(=O)N(c3ccccc3)C2=O)c2ccccc21`, the “hERG current change (%, negative = inhibition) at 1uM” value is listed as 6.76%. In the case of `CC(C)NC(=O)c1[nH]nc2c1CCc1ccccc1-2` it was 17.5%. The same measure for `Cc1ccc(-n2nc3c(=O)n(C(C)C(=O)NCCCc4ccccc4)nc(C)c3c2C)cc1` (centres unmarked): 4.85%; for `Cc1ccc(F)cc1NC(=O)c1ccc(NS(=O)(=O)c2ccc(Br)s2)cc1`: -20%; for `CCOC(=O)c1ccccc1NC(=O)c1cccc(F)c1`: 3.18%. In the case of `Cc1nn(C)c(C)c1NC(=O)COc1ccc(Cl)cc1` it was 5.1%; in that of `O=C(CCc1nnc(CCc2ccccc2)o1)N1CCCCC1CCn1cccn1` (centres unmarked), 8.15%; in that of `Cc1ccc(C(=O)N2N=C(c3ccc(NS(C)(=O)=O)cc3)CC2c2cccs2)cc1` (centres unmarked), 8.06%. On to `CCOC(=O)N1CCN(C(=O)c2cn(CC)c3ccc(S(=O)(=O)N4CCOCC4)cc3c2=O)CC1`, for which the “hERG current change (%, negative = inhibition) at 1uM” value came out at 15.2%.

As to `CCCN(C(=O)/C=C/c1nc2ccccc2s1)C1CCS(=O)(=O)C1` (centres unmarked), the “hERG current change (%, negative = inhibition) at 1uM” value is 6.48%. In the case of `Cc1cc(C)cc(NC(=O)C(OC(=O)c2sccc2C)c2ccccc2)c1` (centres unmarked) it was 18.3%; in that of `CCOC(=O)c1c(-c2cccc([N+](=O)[O-])c2)csc1N`, 9.15%. In the case of `c1ccc(-c2cc(-c3nnco3)c3ccccc3n2)nc1` it was 13.2%; in that of `COc1ccc(OC)c(-c2csc(NC(=O)Cc3ccccc3)n2)c1`, -4.23%; in that of `CCCC(O)(CCN1CCOCC1)c1ccc(Cl)cc1` (centres unmarked), 6.26%. In the case of `Cc1ccc(C(=O)O)cc1-n1c(C)cc(C=O)c1C` it was 7.68%; in that of `O=c1c2c([nH]c3ccccc13)CCCCC2`, 7%; in that of `Nc1cccc(-c2csc(-n3ncc(C(=O)O)c3C(F)(F)F)n2)c1`, 9.69%. `O=C(NCCc1ccccc1F)C1CCC(=O)N(Cc2ccccc2F)C1` (centres unmarked): the “hERG current change (%, negative = inhibition) at 1uM” value stood at 16%.
